# Results published in PubChem BioAssay AID463173 (ICCB-Longwood Screening Facility, Harvard Medical School, 2010).
# About 1,700 (3.3%) of roughly 52,000 compounds were called active. Rule as the data show it: active = survival mostly below about 52% (no sharp cut-off); inactive = mostly above about 56%. This is one part of the list.
# System: Wild type
# Test: growth inhibition of S. aureus wild type versus tarO mutant, primary screen, teichoic acid synthesis inhibitors, RN4220, OD600 (AID 463173)
# Details: S. aureus RN4220 wild type/DeltatarO growth, OD600, 18 h, active compounds read low, screened at 18.75 µg/mL (by protocol)
row,SMILES,survival
1,Cc1ccccc1-c1noc(-c2cc(C(C)C)[nH]n2)n1,inactive: 92%
2,Cc1ccc2[nH]c(=O)c(CN(CC3COCCO3)C(=O)Nc3ccccc3F)cc2c1 (stereo not given),inactive: 102%
3,COc1ccccc1Cc1nc2ccccc2nc1SCC(=O)N1CCCc2ccccc21,inactive: 82%
4,CCOc1ccccc1N1CC(c2nc3ccccc3n2CCOc2ccccc2OC)CC1=O (stereo not given),inactive: 107%
5,COc1ccc(-c2nnc(SCC(=O)c3ccc([N+](=O)[O-])cc3)o2)cc1OC,inactive: 79%
6,N#C/C(=C\c1ccc(-c2ccc(Cl)c(C(=O)O)c2)o1)c1nc2ccccc2[nH]1,inactive: 68%
7,Cc1ccc(-n2c(SCc3ccccc3C)nc3[nH]ncc3c2=O)cc1C,inactive: 85%
8,O=C(NCc1ccccc1Cl)C(=O)NCC(c1cccs1)S(=O)(=O)c1ccccc1 (stereo not given),inactive: 135%
9,Cc1cccn2c(=O)c3cc(C(=O)NC(C)c4ccccc4)c(=N)n(CCOCCO)c3nc12 (stereo not given),inactive: 75%
10,COc1ccc2c(c1)Cc1sc(NC(=O)c3ccc(Cl)cc3)nc1-2,inactive: 82%
11,CC(=O)N1CCCc2ccc(NC(=O)c3ccc(C(F)(F)F)cc3)cc21,inactive: 136%
12,Cc1ccccc1-c1noc(-c2ccc(N3CCCC3)c([N+](=O)[O-])c2)n1,inactive: 85%
13,CC(C)c1ccc(-c2noc(SCC(=O)N(C)c3ccc(F)cc3)n2)cc1,inactive: 127%
14,CCOC(=O)c1cc(OC(=O)c2cccc(F)c2)n(-c2ccccc2)n1,inactive: 79%
15,O=C(O)CNC(=O)c1nc2ncccn2n1,inactive: 105%
16,O=C(NCc1cccnc1)C1CCN(Cc2cc3ccccc3n2Cc2ccccc2)CC1,inactive: 131%
17,O=C(NN=C1CCCCC1)c1cccc(N2CCCC2=O)c1,inactive: 93%
18,CCOc1ccc(N(C(=O)c2ccc(OC)cc2)S(=O)(=O)c2ccc3c(c2)n(C)c(=O)n3C)cc1,inactive: 78%
19,CCC(=O)C1=C(c2ccc(F)cc2)N(C(=O)CC)n2c(nnc2C2CCCCC2)S1,inactive: 78%
20,CCC(=O)OC1=CN(Cc2ccccc2)S(=O)(=O)c2ccccc21,inactive: 78%
21,CC(C)c1ccc(NC(=O)CN2C=NS(=O)(=O)c3ccccc32)cc1,inactive: 90%
22,O=C(CCc1ccccc1)Nc1nnc(CCN2CCCCC2)s1,inactive: 97%
23,COC(=O)c1cc2oc(C)cc2n1Cc1ccc(C)cc1,inactive: 68%

row,SMILES,survival
1,Cc1cc(C)cc(NC(=O)CSc2nnc(CNC(=O)c3c(F)cccc3Cl)o2)c1,inactive: 122%
2,CCN(CC)S(=O)(=O)c1ccc2c(c1)N(CC(=O)Nc1c(C)cc(C)cc1C)C(=O)CS2,inactive: 80%
3,CCOC(=O)CCn1ccc(=O)[nH]c1=O,inactive: 117%
4,N#C/C(=C\c1c(Oc2ccc(F)cc2)nc2ccccn2c1=O)c1nc2ccccc2s1,inactive: 73%
5,Cc1cccc(N2CCN(C(=O)CN3C(=O)COc4ccc(S(=O)(=O)N5CCCC5)cc43)CC2)c1C,inactive: 81%
6,CCOc1ccc(CCNC(=O)Cn2nc(CC)n3c(cc4c(OC)cccc43)c2=O)cc1OCC,inactive: 134%
7,COc1cc2cc(C)c(SCC(=O)N3CCN(C(=O)c4ccco4)CC3)nc2cc1OC,inactive: 106%
8,CCc1ccc(CNC(=O)C2CCN(C(=O)c3ccc(-n4ccc5ccccc54)s3)CC2)cc1,inactive: 67%
9,CCCOc1ccc(C(=O)Nc2sc3c(c2C(=O)OCC)CCCCC3)cc1,inactive: 27%
10,O=C1CC(c2ccc(F)cc2)c2c(n3c(nc4ccccc43)[nH]c2=O)N1 (stereo not given),inactive: 83%
11,CC(C)N(C(C)C)S(=O)(=O)c1ccccc1,inactive: 112%
12,Cc1oc(-c2cccc(Br)c2)nc1CSc1nc2ncccc2[nH]1,inactive: 77%
13,Cc1ccccc1CS(=O)(=O)c1ncc(Cl)c(C(=O)Nc2nnc(C(C)C)s2)n1,inactive: 47%
14,COc1ccc(N2CCN(C(=O)c3cn(C)c4ccc(S(=O)(=O)N(C)C5CCCCC5)cc4c3=O)CC2)cc1,inactive: 85%
15,COc1cc2ccccc2cc1C(=O)Nc1cccc(-c2nc3ccccc3o2)c1,active: 1%
16,Cc1ccccc1NC(=O)CCOc1ccccc1,inactive: 74%
17,Cc1ccc(NC(=O)c2c(C(=O)Nc3ccccc3)sc3nc(C)cc(=O)n23)cc1,inactive: 87%
18,COc1ccc(CNC(=O)C2CCN(S(=O)(=O)c3c(C)noc3/C=C/c3cccs3)CC2)cc1,inactive: 93%
19,CC(C(=O)NCc1cccc(Br)c1)n1ncn2cccc2c1=O (stereo not given),inactive: 86%
20,Cc1ccc(NC(=O)c2cc(CN3CCOCC3)on2)cc1Cl,inactive: 131%
21,Cc1ccccc1S(=O)(=O)Cc1ccc(C(=O)NCc2ccccc2Cl)o1,inactive: 69%
22,Nc1nn(-c2ccccc2)nc1C(=O)OCc1ccccc1Br,active: -2%
23,Cn1cc(-c2cc3n(n2)CCC(=O)N3CCCC(=O)Nc2ccccc2Cl)c2ccccc21,active: -6%

row,SMILES,survival
1,COc1cc(-c2nc3ccc(Cl)cn3c2Nc2ccc3c(c2)OCO3)ccc1O,inactive: 61%
2,CC1=C(C(=O)Nc2ccc(C)cc2Cl)C2(CCCCC2)OC1=O,inactive: 104%
3,COc1ccc2c(c1)CCc1c(C(=O)Nc3c(C)nn(Cc4c(Cl)cccc4Cl)c3C)noc1-2,inactive: 106%
4,O=C(c1cccs1)c1cn(CCOc2ccc(F)cc2)c2ccccc12,inactive: 82%
5,CCOC(=O)c1c(C)[nH]c(C)c1S(=O)(=O)NCC(=O)Nc1ccc(CC)cc1,inactive: 80%
6,CCc1ccccc1NC(=O)c1cc2sc(Cl)cc2n1CC,inactive: 90%
7,Cc1cccc(NC(=O)CC2S/C(=N/c3nccs3)N(C)C2=O)c1 (stereo not given),inactive: 114%
8,CC(Sc1nc(-c2ccccc2)cc(C(F)(F)F)n1)C(=O)NN1CCCCC1 (stereo not given),inactive: 117%
9,O=C(Cn1cnc2onc(-c3ccc(F)cc3)c2c1=O)N1CCN(c2ccccc2F)CC1,inactive: 71%
10,CCOC(=O)c1noc2ncn(CC(=O)Nc3cc(Cl)ccc3OC)c(=O)c12,inactive: 76%
11,O=C(O)Cc1sc(Nc2ccc(C(=O)O)cc2)nc1-c1ccccc1,inactive: 70%
12,CCOc1ccccc1CNC(=O)CCCN1C(=O)COc2ccc(C)cc21,inactive: 112%
13,COc1ccc(-c2cn(-c3ccc(C)cc3)c(S(=O)(=O)CC(=O)Nc3ccccc3)n2)cc1,inactive: 132%
14,CC(C)c1ccccc1NC(=O)CSc1nnc(COc2ccccc2)o1,inactive: 91%
15,Cc1ccc(CNC(=O)CN(C)S(=O)(=O)c2ccc(Br)s2)cc1,inactive: 135%
16,Cc1oc2ncn(CC(C)C)c(=O)c2c1C(=O)Nc1cccc(C(F)(F)F)c1,active: -3%
17,O=C(Nc1ccc(Cl)c(Cl)c1)c1cc(S(=O)(=O)N2CCN(c3cccc(Cl)c3)CC2)ccc1F,inactive: 74%
18,Cc1cc(Br)ccc1NC(=O)c1coc(=O)c2ccccc12,inactive: 106%
19,COc1ccc(-c2nnc(SCC(=O)Nc3ccccc3C)o2)cc1OC,inactive: 85%
20,COc1ccccc1CC(=O)NC1CC(C)(C)NC(C)(C)C1,inactive: 115%
21,O=S1(=O)CCC(N2C(=S)SC3CS(=O)(=O)CC32)C1 (stereo not given),inactive: 107%
22,COc1ccc(N(C(=O)c2ccco2)C(C(=O)NC2CCCC2)c2cc(OC)c(OC)c(OC)c2)cc1 (stereo not given),inactive: 110%
23,O=C(NCCCCc1ccccc1)c1nn(-c2ccccc2F)nc1CO,inactive: 87%

row,SMILES,survival
1,CC(C)OCCCn1c(SCC(N)=O)nc2c(sc3ccccc32)c1=O,inactive: 76%
2,O=C(c1ccc(CS(=O)c2ccccc2Cl)o1)N1CCN(c2cccc(C(F)(F)F)c2)CC1 (stereo not given),inactive: 49%
3,Cc1nn(CCC(=O)NCc2cccc(Br)c2)c(=O)c2nn(-c3ccccc3)c(C)c12,inactive: 101%
4,CCn1c(=O)c2sccc2n2c(CCC(=O)N3CCN(c4ccccc4OC)CC3)nnc12,inactive: 129%
5,CC(C)NC(=O)Cn1ccc2cc(S(=O)(=O)N3CCCCCC3)ccc21,inactive: 90%
6,CCCOc1ccc(C(=O)NCC(c2ccc(OC)cc2)N2CCCCC2)cc1 (stereo not given),inactive: 89%
7,Cc1cccc(OCCCSc2nc(-c3ccc(C(C)(C)C)cc3)nc3cc(=O)[nH]n23)c1C,inactive: 74%
8,CCOC(=O)C1CCN(C(=O)CN(c2cc(Cl)ccc2OC)S(C)(=O)=O)CC1,inactive: 109%
9,CC(NC(=O)c1ccc(CSc2nc3ccncc3n2Cc2ccc(F)cc2)cc1)c1ccccc1 (stereo not given),inactive: 92%
10,O=S(=O)(c1ccccc1)c1nc(-c2cccs2)oc1N1CCCCC1,inactive: 123%
11,COC(=O)CC1=C(C(=O)OC)C(c2ccc(C(=O)OC)cc2)C(C#N)=C(N)O1 (stereo not given),inactive: 110%
12,c1ccc2c(c1)CNc1ccccc1C2,inactive: 100%
13,CCCCCn1c(=O)[nH]c2cc(C(=O)NCc3ccc(F)cc3)ccc2c1=O,inactive: 80%
14,Cc1cccc(-n2c(=O)c3c(c4cc(C)ccc4n3C)n(CC(=O)Nc3ccccc3Cl)c2=O)c1,inactive: 74%
15,COCCNC(=O)c1ccc2c(c1)N(Cc1ccc(C(F)(F)F)cc1)C(=O)c1ccccc1S2,inactive: 84%
16,CC(C)c1ccc(S(=O)(=O)c2nnn3c2nc(N2CCOCC2)c2sccc23)cc1,inactive: 104%
17,CC1CCN(S(=O)(=O)c2ccc3c(ccn3CC(=O)NCc3ccc(N(C)C)cc3)c2)CC1,inactive: 98%
18,Cc1ccccc1OCC(=O)Nc1c(C)ccc2nsnc12,inactive: 85%
19,Cc1cc(C)n2ncc(C(=O)Nc3cccc(C(F)(F)F)c3)c2n1,inactive: 110%
20,Cc1c(C(=O)Nc2ccccc2Br)oc2ccc(S(=O)(=O)N3CCOCC3)cc12,inactive: 113%
21,CCC1CN(C(=O)N2CCC(C(=O)N3CCN(c4ccc(F)cc4)CC3)CC2)c2ccccc2O1 (stereo not given),inactive: 97%
